# According to the supplement of paper PMC3334620:
# Over roughly 33,000 sequences, “E-score (-0.5 to 0.5)” has its median near -0.054; the highest 2% begin near 0.39. Some of the results follow.
# Biological target: Ylr278c (UniProt Q05854)
# Experiment: PBM E-score (8-mer binding enrichment) (E-score (-0.5 to 0.5)); higher = stronger / more preferred TF binding; most listed sequences are background and not binding sites
# Details: protein concentration: 200 nM; construct: GST-DNA-binding domain
# In short: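 Universal all-10-mer Agilent arrays, fresh or stripped once, were converted to double-stranded form by primer extension. GST-tagged yeast transcription factors from PURExpress in vitro transcription/translation, full-length or DNA-binding domain only, were applied at about 100-200 nM and detected with fluorescent anti-GST. After masliner normalisation, the Universal PBM Analysis Suite scored each ungapped eight-base word together with its reverse complement by E-score.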
row,Sequence,PBM E-score
1,AGGGAGAA,-0.124
2,CAACCAAA,0.0454
3,AACTCTAC,-0.263
4,ACAAGTAG,-0.172
5,CCTCTTAA,-0.00018
6,CATTGCTA,-0.0953
7,CCACTACA,-0.0842
8,GTGCAATA,-0.0843
9,AAATGCGC,0.254
10,GACCCATA,0.0506
11,GATAATGA,-0.0199
12,AACCGTTA,-0.283
13,AGGTGTCC,-0.0636
14,AAGAAAGT,0.00752
15,GGTCATCA,-0.189
16,ACTCACGC,-0.229
17,CATCGTAA,-0.0485
18,ACTCTATA,0.0902
19,CATATATA,-0.00984
20,GAGCTACA,-0.0119
21,AGGGACCC,-0.149
22,CCTGAGAC,-0.178
23,ACGATCGG,0.334
24,CGCCGTTC,0.153
25,TCCTTTCA,-0.127

row,Sequence,PBM E-score
1,AGTAAAGC,-0.0131
2,AACCGCCG,0.3
3,AACAGGAC,-0.0455
4,AGACAATG,-0.115
5,CAAGATAA,0.0506
6,ATATGTAA,-0.187
7,ATAATGGG,-0.12
8,CGGACGAC,0.289
9,ACTCCGTA,0.443
10,AGACCAGC,-0.183
11,ACGGAACT,0.321
12,AGAGATCA,-0.309
13,CTGTAATC,-0.16
14,ATCGAAAT,-0.128
15,CAAGTTCG,-0.0793
16,ATCGACTA,-0.229
17,TATCAGCA,-0.0153
18,CAAGATGA,-0.292
19,ACCCAAGG,-0.0719
20,TAACGGGA,0.117
21,GCTCCGAC,0.374
22,ATTCTGCA,-0.0806
23,ATCTGGGC,-0.00438
24,AGACGTTC,-0.0517
25,ATGCGCCA,-0.12

row,Sequence,PBM E-score
1,ACCTAAAG,-0.176
2,CCAAACCG,0.235
3,GTCAAGAC,-0.133
4,CTTATCGC,0.0669
5,TGGCACCA,-0.213
6,GACCGCAC,0.0959
7,ACGGTTCC,0.0133
8,GCAGTCCA,-0.136
9,ATTGTGGG,-0.101
10,AGCGCGAT,0.0131
11,ACAAAATA,-0.0451
12,CGTGTAGC,-0.203
13,CCGAACAG,0.276
14,ACTCTAAC,-0.068
15,GATGAATC,-0.186
16,AGCCGCCC,0.129
17,CTATACTC,-0.0175
18,CTCGCGGC,0.198
19,AATTCTTG,-0.224
20,AGTCGCAC,-0.0873
21,AGTGAGTG,-0.0486
22,CGATTCCC,0.226
23,AACGACGC,-0.164
24,ATCCCTTC,-0.122
25,ACTCTCCA,-0.0794

row,Sequence,PBM E-score
1,CGCCCAAA,0.0214
2,CAACCCGC,0.149
3,GCCAGTGA,-0.213
4,CGCTGAAC,-0.00595
5,CCATAAAA,0.0557
6,ACAATATG,-0.00452
7,ACATCACC,0.0505
8,AACGCCTG,-0.211
9,CACTTACG,0.0434
10,CTTGAACC,-0.162
11,AATATATT,0.0981
12,TCACAGAA,-0.138
13,GACAGCCA,-0.137
14,CTTTGTGA,-0.13
15,CCTTCTCA,-0.121
16,AGCTTTGA,0.0208
17,CGGAAGTC,0.396
18,ACCCGGCC,0.272
19,AAAGAGTA,-0.175
20,CCTGAAAG,-0.244
21,AGGCAACG,-0.0653
22,GATTGGTA,0.0895
23,GACCCCTC,-0.0706
24,GACCACAC,-0.123
25,GCGCGCGC,0.214

row,Sequence,PBM E-score
1,GGCCCTAC,-0.0104
2,CAGGGTAC,-0.344
3,CAGCCGGC,0.296
4,AACCCGAT,0.29
5,AGAAGGCT,-0.269
6,GGGAGTGA,0.0441
7,CCTGACCC,-0.0167
8,CAGCGCTA,0.00241
9,TACGGTAA,0.031
10,CTAACCAA,-0.0463
11,CCTCGAAG,-0.0957
12,ATAAAGTC,0.108
13,AGGTTATA,-0.194
14,CCGTAGTA,0.0927
15,GGCTTCAA,-0.128
16,ATACTGAT,-0.069
17,GCTGAACA,-0.153
18,CCGAACAC,0.186
19,GTAGTCAA,-0.113
20,AAGTGTTC,0.0566
21,CGGGAACC,0.203
22,AAGTATGA,-0.00555
23,TCGTAAGA,-0.0593
24,GTGTAACA,-0.175
25,ATTGCTAC,-0.13

row,Sequence,PBM E-score
1,AAGAGAAT,-0.0016
2,AGTTAAAA,0.0392
3,GCCCCTAC,-0.00801
4,GGATAGCC,0.203
5,ACAAGGTA,-0.078
6,AATAGCGC,0.0368
7,CTCTGAGC,-0.238
8,AAAGGACC,0.0283
9,GGTCCACA,-0.165
10,AACACTCG,0.0471
11,CTGGCCCC,0.102
12,CTACTGGC,-0.0956
13,CTCCAGCA,-0.256
14,ATGACCAA,-0.136
15,GTCATGAA,-0.0846
16,AATGTGAT,-0.068
17,CTCGTCCA,-0.127
18,AAGATCGA,-0.0816
19,AGGGTGTA,-0.172
20,AGGCTACT,-0.169
21,AGCGCACC,0.142
22,GTCGACCA,-0.0958
23,GATTCACC,0.132
24,ACGGTCGC,-0.105
25,AAATGAGG,-0.0578

row,Sequence,PBM E-score
1,ATGTCGAC,-0.108
2,GCCTCGCC,-0.113
3,GTATATAC,-0.131
4,AAACTCCG,0.496
5,ACCTTTAA,-0.182
6,TCGACGCA,-0.0404
7,CATTAAGC,-0.187
8,CTGTCATC,-0.117
9,GCGGGCTA,0.167
10,GATTACTA,0.105
11,AAACCCCG,0.449
12,ACGAGCAT,-0.291
13,CCGTACTA,0.216
14,CACTAGCG,-0.147
15,CCAGGGTA,-0.143
16,CTTTGGAC,-0.00702
17,CAAGCCTA,-0.232
18,ATTCTCGG,0.277
19,CAAGGTCC,0.11
20,AGCTTTCG,-0.0397
21,GCACAAGA,0.0388
22,TCCCGAGA,0.305
